Some of these results come from one statement about several compounds together.
Key:
Assay type in all cases: biochemical
FGFR1 protein [1] = biological target: T1, FGFR1 protein (Homo sapiens, UniProt P11362); experiment: FGFR3 and FGFR1 Enzyme Assay 1 (KinEASE-TK), FGFR1; settings: IC50 FGFR1 divided by IC50 FGFR3
T1 construct: purchased ThermoFisher Scientific PV4105

FGFR3 protein = biological target: T2, FGFR3 protein (Homo sapiens, UniProt P22607); experiment: FGFR3 and FGFR1 Enzyme Assay 1 (KinEASE-TK), FGFR3; settings: at KmATP, 0.25 nM enzyme
T2 construct: purchased Reaction Biology 1068

FGFR1 protein [2] = biological target: T1, FGFR1 protein; experiment: FGFR3 and FGFR1 Enzyme Assay 2 (KinEASE-TK), FGFR1; settings: IC50 FGFR1 divided by IC50 FGFR3

T2 sequence (P22607 23-806): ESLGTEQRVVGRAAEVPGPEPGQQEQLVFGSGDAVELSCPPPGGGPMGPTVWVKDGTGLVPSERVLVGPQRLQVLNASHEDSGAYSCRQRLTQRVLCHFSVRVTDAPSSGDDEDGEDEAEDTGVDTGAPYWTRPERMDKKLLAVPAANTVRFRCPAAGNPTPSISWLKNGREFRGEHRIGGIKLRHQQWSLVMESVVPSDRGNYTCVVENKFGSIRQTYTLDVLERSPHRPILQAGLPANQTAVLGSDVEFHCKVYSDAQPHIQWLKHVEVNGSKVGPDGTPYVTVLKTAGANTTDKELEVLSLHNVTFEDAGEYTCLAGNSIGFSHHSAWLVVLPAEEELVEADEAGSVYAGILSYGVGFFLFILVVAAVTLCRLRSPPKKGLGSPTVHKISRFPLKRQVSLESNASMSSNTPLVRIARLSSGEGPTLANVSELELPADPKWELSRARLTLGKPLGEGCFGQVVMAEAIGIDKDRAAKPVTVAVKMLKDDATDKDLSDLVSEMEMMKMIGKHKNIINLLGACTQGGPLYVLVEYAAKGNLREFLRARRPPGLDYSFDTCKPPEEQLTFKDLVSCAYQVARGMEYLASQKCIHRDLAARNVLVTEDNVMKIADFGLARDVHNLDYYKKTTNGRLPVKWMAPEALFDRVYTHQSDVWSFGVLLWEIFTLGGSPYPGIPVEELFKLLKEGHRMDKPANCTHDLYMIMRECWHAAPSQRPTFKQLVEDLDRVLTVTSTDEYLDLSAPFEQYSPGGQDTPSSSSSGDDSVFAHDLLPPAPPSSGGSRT
T1 sequence (P11362 22-822): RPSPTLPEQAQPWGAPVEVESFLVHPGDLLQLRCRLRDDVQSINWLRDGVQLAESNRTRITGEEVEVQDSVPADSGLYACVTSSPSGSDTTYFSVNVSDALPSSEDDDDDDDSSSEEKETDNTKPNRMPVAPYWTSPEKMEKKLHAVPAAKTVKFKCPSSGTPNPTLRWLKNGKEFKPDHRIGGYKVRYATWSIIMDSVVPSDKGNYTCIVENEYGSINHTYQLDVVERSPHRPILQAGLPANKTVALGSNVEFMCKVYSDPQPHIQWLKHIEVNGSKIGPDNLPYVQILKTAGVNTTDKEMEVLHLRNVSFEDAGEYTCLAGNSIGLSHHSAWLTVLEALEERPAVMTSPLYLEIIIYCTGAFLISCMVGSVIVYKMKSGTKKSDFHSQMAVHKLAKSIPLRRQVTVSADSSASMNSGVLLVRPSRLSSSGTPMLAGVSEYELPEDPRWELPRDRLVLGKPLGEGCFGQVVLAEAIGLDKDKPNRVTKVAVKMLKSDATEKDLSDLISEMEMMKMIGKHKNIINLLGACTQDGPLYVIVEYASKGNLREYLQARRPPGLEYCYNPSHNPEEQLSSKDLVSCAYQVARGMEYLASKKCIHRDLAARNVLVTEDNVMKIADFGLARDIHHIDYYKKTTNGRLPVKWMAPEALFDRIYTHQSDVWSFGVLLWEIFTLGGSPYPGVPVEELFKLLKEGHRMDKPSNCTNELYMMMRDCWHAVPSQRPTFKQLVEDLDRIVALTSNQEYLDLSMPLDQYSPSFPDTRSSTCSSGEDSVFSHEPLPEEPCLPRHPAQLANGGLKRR

SMILES | fold more selective for FGFR3 than for FGFR1 (FGFR1 protein [1]) | IC50 (FGFR3 protein) | fold more selective for FGFR3 than for FGFR1 (FGFR1 protein [2])
C=CC(=O)N1CC(n2ncc(-c3cc(OC)c4c(C#N)cnn4c3)c2C)C1 [Example 3, 4-Methoxy-6-[5-methyl-1-(1-prop-2-enoylazetidin-3-yl)pyrazol-4-yl]pyrazolo[1,5-a]pyridine-3-carbonitrile] | at least 3 fold | – | –
C=CC(=O)N1CC(n2nnc(-c3cc(OC(C)C)c4c(C#N)cnn4c3)c2C)C1 [Example 4, 4-Isopropoxy-6-[5-methyl-1-(1-prop-2-enoylazetidin-3-yl)triazol-4-yl]pyrazolo[1,5-a]pyridine-3-carbonitrile] | at least 3 fold | – | –
C=CC(=O)N1CC(n2nnc(-c3cc(OC)c4c(C#N)cnn4c3)c2C)C1 [Example 5, 4-Methoxy-6-[5-methyl-1-(1-prop-2-enoylazetidin-3-yl)triazol-4-yl]pyrazolo[1,5-a]pyridine-3-carbonitrile] | at least 3 fold | – | –
C=CC(=O)N1CCCC(n2ncc(-c3cc(O[C@H](C)C4CCC4)c4c(C#N)cnn4c3)c2C)C1 (stereo partly drawn) [Example 9, 4-[(1R)-1-Cyclobutylethoxy]-6-[(1R)-5-methyl-1-(1-prop-2-enoy1-3-piperidyl)pyrazol-4-yl]pyrazolo[1,5-a]pyridine-3-carbonitrile] | at least 3 fold | – | –
C=CC(=O)N1CC[C@H](n2ncc(-c3cc(OC)c4c(C#N)cnn4c3)c2C)C1 [Example 12, 4-Methoxy-6-[5-methyl-1-[(3S)-1-prop-2-enoylpyrrolidin-3-yl]pyrazol-4-yl]pyrazolo[1,5-a]pyridine-3-carbonitrile] | at least 3 fold | – | –
C=CC(=O)NC1(CN2CCC(n3ncc(-c4cc(OC(C)C)c5c(C#N)cnn5c4)c3C)CC2)CC1 [Example 13, N-[1-[[4-[4-(3-Cyano-4-isopropoxy-pyrazolo[1,5-a]pyridine-6-yl)-5-methyl-pyrazol-1-yl]-1-piperidyl]methyl]cyclopro-pyl]prop-2-enamide] | at least 3 fold | – | –
C=CC(=O)N1CCC2(CC1)CC(n1ncc(-c3cc(OC)c4c(C#N)cnn4c3)c1C)C2 [Example 14, 4-Methoxy-6-[5-methyl-1-(7-prop-2-enoyl-7-azaspiro[3.5]nonan-2-yl)pyrazol-4-yl]pyrazolo[1,5-a]pyridine-3-carbonitrile] | – | < 350 nM | –
C=CC(=O)NC(C)(C)CN1CCC(n2ncc(-c3cc(OC)c4c(C#N)cnn4c3)c2C)CC1 [Example 15, N-[2-[4-[4-(3-Cyano-4-methoxy-pyrazolo[1,5-a]pyridin-6-yl)-5-methyl-pyrazol-1-yl]-1-piperidyl]-1,1-dimethyl-ethyl]prop-2-enamide] | at least 3 fold | – | –
C=CC(=O)NC1(CN2CCC(n3nnc(-c4cc(OC)c5c(C#N)cnn5c4)c3C)CC2)CC1 [Example 16, N-[1-[[4-[4-(3-Cyano-4-methoxy-pyrazolo[1,5-a]pyridine-6-yl)-5-methyl-triazol-1-yl]-1-piperidyl]methyl]cyclopro-pyl]prop-2-enamide] | at least 3 fold | – | –
C=CC(=O)N1CCC[C@H](n2ncc(-c3cc(OC)c4c(C#N)cnn4c3)c2C)C1 [Example 17, 4-Methoxy-6-[5-methyl-1-[(3S)-1-prop-2-enoyl-3-piperidyl]pyrazol-4-yl]pyrazolo[1,5-a]pyridine-3-carbonitrile] | at least 3 fold | – | –
C=CC(=O)N1CCC[C@@H](n2ncc(-c3cc(OC)c4c(C#N)cnn4c3)c2C)C1 [Example 18, 4-Methoxy-6-[5-methyl-1-[(3R)-1-prop-2-enoyl-3-piperidyl]pyrazol-4-yl]pyrazolo[1,5-a]pyridine-3-carbonitrile] | – | < 350 nM | –
C=CC(=O)NC1(CN2CCC(n3ncc(-c4cc(OC)c5c(C#N)cnn5c4)c3C)CC2)CCC1 [Example 19, N-[1-[[4-[4-(3-Cyano-4-methoxy-pyrazolo[1,5-a]pyridin-6-yl)-5-methyl-pyrazol-1-yl]-1-piperidyl]methyl]cyclobu-tyl]prop-2-enamide] | at least 3 fold | – | –
C=CC(=O)N1CC[C@H](N2CC(n3ncc(-c4cc(OC)c5c(C#N)cnn5c4)c3C)C2)C1 [Example 20, 4-Methoxy-6-[5-methyl-1-[1-[(3S)-1-prop-2-enoylpyrrolidin-3-yl]azetidine-3-yl]pyrazol-4-yl]pyrazolo[1,5-a]pyridine-3-carbonitrile] | at least 3 fold | – | –
C=CC(=O)N1CC[C@@H](N2CC(n3ncc(-c4cc(OC)c5c(C#N)cnn5c4)c3C)C2)C1 [Example 21, 4-Methoxy-6-[5-methyl-1-[1-[(3R)-1-prop-2-enoylpyrrolidin-3-yl]azetidine-3-yl]pyrazol-4-yl]pyrazolo[1,5-a]pyridine-3-carbonitrile] | at least 3 fold | – | –
C=CC(=O)N1CC[C@@H](n2nnc(-c3cc(OC)c4c(C#N)cnn4c3)c2C)C1 [Example 22, 4-Methoxy-6-[5-methyl-1-[(3R)-1-prop-2-enoylpyrrolidin-3-yl]triazol-4-yl]pyrazolo[1,5-a]pyridine-3-carbonitrile] | – | < 350 nM | –
C=CC(=O)N1CC[C@H](n2nnc(-c3cc(OC)c4c(C#N)cnn4c3)c2C)C1 [Example 23, 4-Methoxy-6-[5-methyl-1-[(3S)-1-prop-2-enoylpyrrolidin-3-yl]triazol-4-yl]pyrazolo[1,5-a]pyridine-3-carbonitrile] | – | < 350 nM | –
C=CC(=O)NC1(CN2CCC(n3ncc(-c4cc(OC)c5c(C#N)cnn5c4)c3C)CC2)CC1 [Example 30, N-[1-[[4-[4-(3-Cyano-4-methoxy-pyrazolo[1,5-a]pyridin-6-yl)-5-methyl-pyrazol-1-yl]-1-piperidyl]methyl]cyclopro-pyl]prop-2-enamide] | at least 3 fold | – | –
C=CC(=O)N1CC[C@@H](N2CCC(n3ncc(-c4cc(OC)c5c(C#N)cnn5c4)c3C)CC2)C1 [Example 31, 4-Methoxy-6-[5-methyl-1-[1-[(3R)-1-prop-2-enoylpyrrolidin-3-yl]-4-piperidyl]pyrazol-4-yl]pyrazolo[1,5-a]pyridine-3-carbonitrile] | at least 3 fold | – | –
C=CC(=O)N1CC[C@H](N2CCC(n3ncc(-c4cc(OC)c5c(C#N)cnn5c4)c3C)CC2)C1 [Example 33, 4-Methoxy-6-[5-methyl-1-[1-[(3S)-1-prop-2-enoylpyrrolidin-3-yl]-4-piperidyl]pyrazol-4-yl]pyrazolo[1,5-a]pyridine-3-carbonitrile] | at least 3 fold | – | –
C=CC(=O)N1CC[C@@H](n2ncc(-c3cc(OC)c4c(C#N)cnn4c3)c2C)C1 [Example 34, 4-Methoxy-6-[5-methyl-1-[(3R)-1-prop-2-enoylpyrrolidin-3-yl]pyrazol-4-yl]pyrazolo[1,5-a]pyridine-3-carbonitrile] | at least 3 fold | – | –
C=CC(=O)N1CCC(n2nnc(-c3cc(OC(C)C4CCC4)c4c(Cl)cnn4c3)c2C)CC1 (stereo not drawn) [Example 37, 1-[4-[4-[3-Chloro-4-(1-cyclobutylethoxy)pyrazolo [1,5-a]pyridin-6-yl]-5-methyl-triazol-1-yl]-1-piperidyl]prop-2-en-1-one] | – | – | at least 3 fold
CC#CC(=O)N1CCC(n2ncc(-c3cc(OC)c4c(C#N)cnn4c3)c2C)CC1 [Example 45, 6-[1-(1-But-2-ynoyl-4-piperidyl)-5-methyl-pyrazol-4-yl]-4-methoxy-pyrazolo[1,5-a]pyridine-3-carbonitrile] | at least 3 fold | < 100 nM | –
COc1cc(-c2cnn(C3CCN(C(=O)C(C#N)=CC(C)C)CC3)c2C)cn2ncc(C#N)c12 [Example 49, 6-[1-[1-[2-Cyano-4-methyl-pent-2-enoyl]-4-piperidyl]-5-methyl-pyrazol-4-yl]-4-methoxy-pyrazolo[1,5-a]pyridine-3-carbonitrile] | at least 10 fold | < 50 nM | –
COc1cc(-c2cnn(C3CCN(C(=O)C(C#N)=Cc4cnsc4)CC3)c2C)cn2ncc(C#N)c12 [Example 54, 6-[1-[1-[2-Cyano-3-isothiazol-4-yl-prop-2-enoyl]-4-piperidyl]-5-methyl-pyrazol-4-yl]-4-methoxy-pyrazolo[1,5-a]pyridine-3-carbonitrile] | at least 10 fold | < 50 nM | –
COc1cc(-c2cnn(C3CCN(C(=O)C(C#N)=CC(C)(C)CN4CCOCC4)CC3)c2C)cn2ncc(C#N)c12 [Example 55, 6-[1-[1-[2-Cyano-4,4-dimethyl-5-morpholino-pent-2-enoyl]-4-piperidyl]-5-methyl-pyrazol-4-yl]-4-methoxy-pyrazolo[1,5-a]pyridine-3-carbonitrile] | at least 10 fold | < 50 nM | –
COc1cc(-c2cnn(C3CCN(C(=O)C(C#N)=CC(C)(C)N(C)C4COC4)CC3)c2C)cn2ncc(C#N)c12 [Example 56, 6-[1-[1-[2-Cyano-4-methyl-4-[methyl(oxetan-3-yl)amino]pent-2-enoyl]-4-piperidyl]-5-methyl-pyrazol-4-yl]-4-methoxy-pyrazolo[1,5-a]pyridine-3-carbonitrile] | at least 10 fold | < 50 nM | –
COc1cc(-c2cnn(C3CCN(C(=O)C(C#N)=CC(C)(C)O)CC3)c2C)cn2ncc(C#N)c12.O=C(O)C(F)(F)F [Example 58, 6-[1-[1-[2-Cyano-4-hydroxy-4-methyl-pent-2-enoyl]-4-piperidyl]-5-methyl-pyrazol-4-yl]-4-methoxy-pyrazolo[1,5-a]pyridine-3-carbonitrile; 2,2,2-trifluoroacetic acid] | at least 10 fold | < 50 nM | –
